Assay results from the supplement of paper PMC8728848.
The list shows a part of the results.

Legend:
Experiment in all cases: glycan array binding signal (z-score within array); higher = stronger binding
Conditions in all cases: glycan notation: IUPAC condensed, linker removed
Glc(b1-6)Glc = target: Glc(b1-6)Glc
Outline: (§1)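 Arrays were curated from the Consortium for Functional Glycomics database, 3228 in total, and kept only where the protein sequence was available. Binding is expressed as a within-array Z-score. This score was averaged across arrays of the same protein sequence at different concentrations or buffers and across linkers, and negative values can be read as non-binding.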

GlcA(b1-3)Gal = target: GlcA(b1-3)Gal
Outline: as §1

GlcA(b1-3)GlcNAc = target: GlcA(b1-3)GlcNAc
Outline: as §1

GlcA(b1-6)Gal = target: GlcA(b1-6)Gal
Outline: as §1

[1] = target: GlcA3S(b1-3)Gal(b1-4)GlcNAc(b1-2)Man
Outline: as §1

[2] = target: GlcA3S(b1-3)Gal(b1-4)GlcNAc(b1-3)Gal(b1-4)Glc
Outline: as §1

[3] = target: GlcNAc(a1-3)Gal(b1-4)GlcNAc
Outline: as §1

[4] = target: GlcNAc(a1-4)Gal(b1-3)GlcNAc
Outline: as §1

[5] = target: GlcNAc(a1-4)Gal(b1-4)GalNAc
Outline: as §1

[6] = target: GlcNAc(a1-4)Gal(b1-4)GlcNAc
Outline: as §1

[7] = target: GlcNAc(a1-4)Gal(b1-4)GlcNAc(b1-3)Gal(b1-4)Glc
Outline: as §1

[8] = target: GlcNAc(a1-4)Gal(b1-4)GlcNAc(b1-3)Gal(b1-4)GlcNAc
Outline: as §1

[9] = target: GlcNAc(a1-4)Gal(b1-4)GlcNAc(b1-3)Gal(b1-4)GlcNAc(b1-3)Gal(b1-4)GlcNAc
Outline: as §1

[10] = target: GlcNAc(a1-4)Gal(b1-4)GlcNAc(b1-3)Gal(b1-4)[Fuc(a1-3)]GlcNAc(b1-3)Gal(b1-4)[Fuc(a1-3)]GlcNAc
Outline: as §1

[11] = target: GlcNAc(a1-6)Gal(b1-4)GlcNAc
Outline: as §1

[12] = target: GlcNAc(b1-2)Gal(b1-3)GalNAc
Outline: as §1

[13] = target: GlcNAc(b1-2)Man(a1-3)[GlcNAc(b1-2)Man(a1-6)]Man(b1-4)GlcNAc(b1-4)GlcNAc
Outline: as §1

[14] = target: GlcNAc(b1-2)Man(a1-3)[GlcNAc(b1-2)Man(a1-6)]Man(b1-4)GlcNAc(b1-4)[Fuc(a1-6)]GlcNAc
Outline: as §1

[15] = target: GlcNAc(b1-2)Man(a1-3)[GlcNAc(b1-4)][GlcNAc(b1-2)Man(a1-6)]Man(b1-4)GlcNAc(b1-4)GlcNAc
Outline: as §1

[16] = target: GlcNAc(b1-2)Man(a1-3)[GlcNAc(b1-4)][GlcNAc(b1-2)Man(a1-6)]Man(b1-4)GlcNAc(b1-4)[Fuc(a1-6)]GlcNAc
Outline: as §1

[17] = target: GlcNAc(b1-2)[GlcNAc(b1-4)]Man(a1-3)[GlcNAc(b1-2)Man(a1-6)]Man(b1-4)GlcNAc(b1-4)GlcNAc
Outline: as §1

[18] = target: GlcNAc(b1-2)[GlcNAc(b1-4)]Man(a1-3)[GlcNAc(b1-4)][GlcNAc(b1-2)Man(a1-6)]Man(b1-4)GlcNAc(b1-4)GlcNAc
Outline: as §1

[19] = target: GlcNAc(b1-2)[GlcNAc(b1-4)]Man(a1-3)[GlcNAc(b1-4)][GlcNAc(b1-2)[GlcNAc(b1-6)]Man(a1-6)]Man(b1-4)GlcNAc(b1-4)GlcNAc
Outline: as §1

[20] = target: GlcNAc(b1-2)[GlcNAc(b1-4)]Man(a1-3)[GlcNAc(b1-4)][GlcNAc(b1-2)[GlcNAc(b1-6)]Man(a1-6)]Man(b1-4)GlcNAc(b1-4)[Fuc(a1-6)]GlcNAc
Outline: as §1

[21] = target: GlcNAc(b1-2)[GlcNAc(b1-6)]Man(a1-6)[GlcNAc(b1-2)Man(a1-3)]Man(b1-4)GlcNAc(b1-4)GlcNAc
Outline: as §1

[22] = target: GlcNAc(b1-2)[GlcNAc(b1-6)]Man(a1-6)[GlcNAc(b1-2)Man(a1-3)]Man(b1-4)GlcNAc(b1-4)[Fuc(a1-6)]GlcNAc
Outline: as §1

[23] = target: GlcNAc(b1-2)[GlcNAc(b1-6)]Man(a1-6)[GlcNAc(b1-4)][GlcNAc(b1-2)Man(a1-3)]Man(b1-4)GlcNAc(b1-4)GlcNAc
Outline: as §1

GlcNAc(b1-3)Fuc = target: GlcNAc(b1-3)Fuc
Outline: as §1

GlcNAc(b1-3)Gal = target: GlcNAc(b1-3)Gal
Outline: as §1

[24] = target: GlcNAc(b1-3)Gal(b1-3)GalNAc
Outline: as §1

GlcNAc(b1-3)Gal(b1-4)Glc = target: GlcNAc(b1-3)Gal(b1-4)Glc
Outline: as §1

[25] = target: GlcNAc(b1-3)Gal(b1-4)GlcNAc
Outline: as §1

[26] = target: GlcNAc(b1-3)Gal(b1-4)GlcNAc(b1-2)Man(a1-3)[GlcNAc(b1-3)Gal(b1-4)GlcNAc(b1-2)Man(a1-6)]Man(b1-4)GlcNAc(b1-4)GlcNAc
Outline: as §1

[27] = target: GlcNAc(b1-3)Gal(b1-4)GlcNAc(b1-2)Man(a1-3)[GlcNAc(b1-3)Gal(b1-4)GlcNAc(b1-2)Man(a1-6)]Man(b1-4)GlcNAc(b1-4)[Fuc(a1-6)]GlcNAc
Outline: as §1

[28] = target: GlcNAc(b1-3)Gal(b1-4)GlcNAc(b1-2)[GlcNAc(b1-3)Gal(b1-4)GlcNAc(b1-6)]Man(a1-6)[GlcNAc(b1-3)Gal(b1-4)GlcNAc(b1-2)Man(a1-3)]Man(b1-4)GlcNAc(b1-4)GlcNAc
Outline: as §1

[29] = target: GlcNAc(b1-3)Gal(b1-4)GlcNAc(b1-3)Gal(b1-4)GlcNAc
Outline: as §1

[30] = target: GlcNAc(b1-3)Gal(b1-4)GlcNAc(b1-3)Gal(b1-4)GlcNAc(b1-2)Man(a1-3)[GlcNAc(b1-3)Gal(b1-4)GlcNAc(b1-3)Gal(b1-4)GlcNAc(b1-2)Man(a1-6)]Man(b1-4)GlcNAc(b1-4)GlcNAc
Outline: as §1

[31] = target: GlcNAc(b1-3)Gal(b1-4)GlcNAc(b1-3)Gal(b1-4)GlcNAc(b1-2)Man(a1-3)[GlcNAc(b1-3)Gal(b1-4)GlcNAc(b1-3)Gal(b1-4)GlcNAc(b1-2)Man(a1-6)]Man(b1-4)GlcNAc(b1-4)[Fuc(a1-6)]GlcNAc
Outline: as §1

[32] = target: GlcNAc(b1-3)Gal(b1-4)GlcNAc(b1-3)Gal(b1-4)GlcNAc(b1-2)[GlcNAc(b1-3)Gal(b1-4)GlcNAc(b1-3)Gal(b1-4)GlcNAc(b1-6)]Man(a1-6)[GlcNAc(b1-3)Gal(b1-4)GlcNAc(b1-3)Gal(b1-4)GlcNAc(b1-2)Man(a1-3)]Man(b1-4)GlcNAc(b1-4)[Fuc(a1-6)]GlcNAc
Outline: as §1

[33] = target: GlcNAc(b1-3)Gal(b1-4)GlcNAc(b1-3)Gal(b1-4)GlcNAc(b1-3)Gal(b1-4)GlcNAc(b1-2)Man(a1-3)[GlcNAc(b1-3)Gal(b1-4)GlcNAc(b1-3)Gal(b1-4)GlcNAc(b1-3)Gal(b1-4)GlcNAc(b1-2)Man(a1-6)]Man(b1-4)GlcNAc(b1-4)GlcNAc
Outline: as §1

[34] = target: GlcNAc(b1-3)Gal(b1-4)GlcNAc(b1-3)Gal(b1-4)GlcNAc(b1-3)Gal(b1-4)GlcNAc(b1-2)Man(a1-3)[GlcNAc(b1-3)Gal(b1-4)GlcNAc(b1-3)Gal(b1-4)GlcNAc(b1-3)Gal(b1-4)GlcNAc(b1-2)Man(a1-6)]Man(b1-4)GlcNAc(b1-4)[Fuc(a1-6)]GlcNAc
Outline: as §1

[35] = target: GlcNAc(b1-3)Gal(b1-4)GlcNAc(b1-3)Gal(b1-4)GlcNAc(b1-3)Gal(b1-4)GlcNAc(b1-2)[GlcNAc(b1-3)Gal(b1-4)GlcNAc(b1-3)Gal(b1-4)GlcNAc(b1-3)Gal(b1-4)GlcNAc(b1-6)]Man(a1-6)[GlcNAc(b1-3)Gal(b1-4)GlcNAc(b1-3)Gal(b1-4)GlcNAc(b1-3)Gal(b1-4)GlcNAc(b1-2)Man(a1-3)]Man(b1-4)GlcNAc(b1-4)[Fuc(a1-6)]GlcNAc
Outline: as §1

[36] = target: GlcNAc(b1-3)Gal(b1-4)GlcNAc(b1-3)Gal(b1-4)GlcNAc(b1-3)Gal(b1-4)GlcNAc(b1-3)Gal(b1-4)GlcNAc(b1-2)Man(a1-3)[GlcNAc(b1-3)Gal(b1-4)GlcNAc(b1-3)Gal(b1-4)GlcNAc(b1-3)Gal(b1-4)GlcNAc(b1-3)Gal(b1-4)GlcNAc(b1-2)Man(a1-6)]Man(b1-4)GlcNAc(b1-4)GlcNAc
Outline: as §1

[37] = target: GlcNAc(b1-3)Gal(b1-4)GlcNAc(b1-3)Gal(b1-4)GlcNAc(b1-3)Gal(b1-4)GlcNAc(b1-3)Gal(b1-4)GlcNAc(b1-2)Man(a1-3)[GlcNAc(b1-3)Gal(b1-4)GlcNAc(b1-3)Gal(b1-4)GlcNAc(b1-3)Gal(b1-4)GlcNAc(b1-3)Gal(b1-4)GlcNAc(b1-2)Man(a1-6)]Man(b1-4)GlcNAc(b1-4)[Fuc(a1-6)]GlcNAc
Outline: as §1

[38] = target: GlcNAc(b1-3)Gal(b1-4)GlcNAc(b1-3)Gal(b1-4)GlcNAc(b1-3)Gal(b1-4)GlcNAc(b1-3)Gal(b1-4)GlcNAc(b1-2)[GlcNAc(b1-3)Gal(b1-4)GlcNAc(b1-3)Gal(b1-4)GlcNAc(b1-3)Gal(b1-4)GlcNAc(b1-3)Gal(b1-4)GlcNAc(b1-6)]Man(a1-6)[GlcNAc(b1-3)Gal(b1-4)GlcNAc(b1-3)Gal(b1-4)GlcNAc(b1-3)Gal(b1-4)GlcNAc(b1-3)Gal(b1-4)GlcNAc(b1-2)Man(a1-3)]Man(b1-4)GlcNAc(b1-4)[Fuc(a1-6)]GlcNAc
Outline: as §1

B1: Langerin K313I (Homo sapiens), Q9UJ71 (protein)
chain: STLNAQIPELKSDLEKASALNTKIRALQGSLENMSKLLKRQNDILQVVSQGWKYFKGNFYYFSLIPKTWYSAEQFCVSRNSHLTSVTSESEQEFLYKTAGGLIYWIGLTKAGMEGDWSWVDDTPFNKVQSARFWIPGEPNNAGNNEHCGNIKAPSLQAWNDAPCDITFLFICKRPYVPSEP
glycan array binding signal (z-score) (Glc(b1-6)Glc): -0.119 | glycan array binding signal (z-score) (GlcA(b1-3)Gal): -0.358 | glycan array binding signal (z-score) (GlcA(b1-3)GlcNAc): -0.334 | glycan array binding signal (z-score) (GlcA(b1-6)Gal): -0.191 | glycan array binding signal (z-score) [1]: -0.331 | glycan array binding signal (z-score) [2]: -0.268 | glycan array binding signal (z-score) [3]: -0.393 | glycan array binding signal (z-score) [4]: -0.33 | glycan array binding signal (z-score) [5]: -0.074 | glycan array binding signal (z-score) [6]: -0.289 | glycan array binding signal (z-score) [7]: -0.289 | glycan array binding signal (z-score) [8]: -0.281 | glycan array binding signal (z-score) [9]: -0.291 | glycan array binding signal (z-score) [10]: 0.379 | glycan array binding signal (z-score) [11]: -0.352 | glycan array binding signal (z-score) [12]: 1.47 | glycan array binding signal (z-score) [13]: 0.315 | glycan array binding signal (z-score) [14]: 0.47 | glycan array binding signal (z-score) [15]: -0.125 | glycan array binding signal (z-score) [16]: 4.2 | glycan array binding signal (z-score) [17]: 0.579 | glycan array binding signal (z-score) [18]: 0.322 | glycan array binding signal (z-score) [19]: -0.233 | glycan array binding signal (z-score) [20]: 0.817 | glycan array binding signal (z-score) [21]: -0.153 | glycan array binding signal (z-score) [22]: 2.23 | glycan array binding signal (z-score) [23]: -0.263 | glycan array binding signal (z-score) (GlcNAc(b1-3)Fuc): -0.28 | glycan array binding signal (z-score) (GlcNAc(b1-3)Gal): -0.163 | glycan array binding signal (z-score) [24]: 0.444 | glycan array binding signal (z-score) (GlcNAc(b1-3)Gal(b1-4)Glc): 1.28 | glycan array binding signal (z-score) [25]: 3.17 | glycan array binding signal (z-score) [26]: -0.033 | glycan array binding signal (z-score) [27]: 0.232 | glycan array binding signal (z-score) [28]: 4.12 | glycan array binding signal (z-score) [29]: 0.512 | glycan array binding signal (z-score) [30]: 2.88 | glycan array binding signal (z-score) [31]: 3.2 | glycan array binding signal (z-score) [32]: 9.38 | glycan array binding signal (z-score) [33]: 0.024 | glycan array binding signal (z-score) [34]: 0.28 | glycan array binding signal (z-score) [35]: 1.78 | glycan array binding signal (z-score) [36]: 0.313 | glycan array binding signal (z-score) [37]: -0.005 | glycan array binding signal (z-score) [38]: 0.653
